According to PubChem BioAssay AID624171 (National Center for Advancing Translational Sciences (NCATS), 2012):
In all, about 410,000 compounds went through this assay and about 1,200 (0.29%) were called active. The shares of active, inactive and inconclusive entries below differ from those in the screen. Calls follow the shape of the dose curve; as a rule, active = well fitted activation curve with a large enough effect; inconclusive = small, poorly fitted or top-dose-only effect; inactive = flat fitted curve, though single readings scatter. Potencies of inconclusive entries are doubtful fits and often do not repeat.

Assay: qHTS of Nrf2 Activators; also: nearly all actives have a fitted effect of over 65% in size
Settings: AREc32 ARE-luciferase reporter (MCF7-derived line), luminescence, 24 h; series mostly up to 46.1 µM
Summary of the method: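 AREc32_Fluc, 1000 cells/well, OPTI-MEM + 5% FBS, o/n 37 deg C 5% CO2; 23 nL cpd by pin tool, 24 hr; Steady-Glo 30 min RT, luminescence.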
Potency is read from the fitted curve at half-maximal effect; tags tell the direction and shape of the fitted curve.

Q: Which Potency does the source give for `O=C(Cc1ccccc1)Nc1cccc([N+](=O)[O-])c1` here?
A: inconclusive: 20 µM [activator, single point]

Q: For `Cc1nc2ccccc2nc1SCC(=O)c1ccccc1`, which Potency is on record?
A: inconclusive: 15.8 µM [activator, partial curve, poor fit]

Q: Which Potency does the source give for `O=C(Cn1ncc(Cl)c(Cl)c1=O)c1ccc(Cl)cc1` here?
A: inconclusive: 3.16 µM [activator, partial curve, poor fit]

Q: For `O=[N+]([O-])c1cc([N+](=O)[O-])c2nonc2c1Nc1ccccc1O`, which Potency is on record?
A: inconclusive: 8.91 µM [activator, partial curve]

Q: Which Potency does the source give for `O=C(Nc1cccc(C(F)(F)F)c1)C1CCN(S(=O)(=O)c2cccc3nsnc23)CC1` here?
A: inactive

Q: Which Potency does the source give for `COC(=O)c1cc(-c2cccs2)[nH]n1` here?
A: inconclusive: 35.5 µM [activator, partial curve, poor fit]

Q: With `O=C(Nc1cccnc1)c1ccc([N+](=O)[O-])o1` as the compound, how does the Potency read?
A: inconclusive: 15.8 µM [activator, single point]

Q: Which Potency does the source give for `C/C(=N\NC(=S)Nc1cccc(C)c1)c1ccco1` here?
A: inconclusive: 2.51 µM [activator, full curve, poor fit]

Q: With `CCN(CC)c1ccc(NC2=C(Cl)C(=O)c3ccccc3C2=O)cc1` as the compound, how does the Potency read?
A: inconclusive: 5.01 µM [activator, full curve]

Q: Which Potency does the source give for `O=C1NC(=S)S/C1=C/c1ccc(N2CCOCC2)o1` here?
A: inconclusive: 15.8 µM [activator, single point]

Q: Which Potency does the source give for `c1ccc(-c2nc3c4ccccc4ccn3c2CN2CCOCC2)cc1` here?
A: inconclusive: 20 µM [activator, single point]

Q: With `O=C(NNS(=O)(=O)c1ccccc1[N+](=O)[O-])c1cccc([N+](=O)[O-])c1` as the compound, how does the Potency read?
A: inconclusive: 15.8 µM [activator, single point]

Q: With `COc1ccccc1NC(=O)c1sc(Cl)nc1C` as the compound, how does the Potency read?
A: active: 11.2 µM

Q: Which Potency does the source give for `Clc1ccc(-c2csc3ncnc(Cl)c23)cc1` here?
A: inconclusive: 25.1 µM [activator, single point]

Q: With `Cc1[nH]n(-c2ccccc2)c(=O)c1C(C[N+](=O)[O-])c1ccc(Br)cc1` (stereo not given) as the compound, how does the Potency read?
A: inconclusive: 22.4 µM [activator, single point]

Q: With `O=C(CCS(=O)(=O)c1ccccc1)Nc1nc(-c2ccccn2)cs1` as the compound, how does the Potency read?
A: inconclusive: 4.47 µM [activator, full curve]

Q: With `CC(=NNC(=S)N1CCCCC1)c1cccc(C)n1` as the compound, how does the Potency read?
A: inconclusive: 20 µM [activator, single point]

Q: For `O=[N+]([O-])c1ccc(SCc2ccco2)cc1N1CCOCC1`, which Potency is on record?
A: inconclusive: 1.58 µM [activator, full curve, poor fit]

Q: For `O=C(NCc1ccco1)c1n[nH]c(=O)c2ccccc12`, which Potency is on record?
A: inconclusive: 3.16 µM [activator, full curve]

Q: Which Potency does the source give for `CN(C)CC1CC/C(=C\c2ccc(O)cc2)C1=O` (stereo not given) here?
A: inconclusive: 4.47 µM [activator, single point]

Q: For `Fc1ccc(Oc2nc(-c3ccccn3)nc3ccccc23)cc1`, which Potency is on record?
A: inconclusive: 22.4 µM [activator, single point]

Q: With `COc1ccc(-c2ccc(CCC(=O)O)o2)cc1` as the compound, how does the Potency read?
A: inconclusive: 31.6 µM [activator, single point]

Q: With `O=C(CSc1nc2ccc(NC(=O)c3ccccc3C(=O)O)cc2s1)Nc1ccc(F)c([N+](=O)[O-])c1` as the compound, how does the Potency read?
A: inconclusive: 12.6 µM [activator, single point]

Q: Which Potency does the source give for `O=C(Nc1cc(Cl)ccc1O)C1CC(c2c(F)cccc2Cl)=NO1` (stereo not given) here?
A: inconclusive: 28.2 µM [activator, single point]

Q: Which Potency does the source give for `C/C(=N\Nc1nc(C(C)(C)C)cs1)c1ccccc1` here?
A: inconclusive: 11.2 µM [activator, single point]

Q: For `Cc1ccccc1CN1CCc2nc(N3CCN(c4ccccn4)CC3)ncc2C1`, which Potency is on record?
A: inactive

Q: Which Potency does the source give for `COCCNC(=O)/C(C#N)=C/c1c(F)cccc1Cl` here?
A: inconclusive: 31.6 µM [activator, single point]

Q: For `CC1(C)COC(c2ccc(F)c([N+](=O)[O-])c2)=N1`, which Potency is on record?
A: inconclusive: 22.4 µM [activator, single point]

Q: Which Potency does the source give for `COc1ccc(CC(=O)Nc2ccc(N3CCN(c4ccc(OC)cc4)CC3)c(C#N)c2)cc1` here?
A: inactive

Q: With `CNCc1ccccc1Sc1ccc(O)c(O)c1` as the compound, how does the Potency read?
A: inconclusive: 25.1 µM [activator, single point]

Q: With `COc1cc(/C=C2\COC/C(=C\c3ccc(O)c(OC)c3)C2=O)ccc1O` as the compound, how does the Potency read?
A: inconclusive: 4.47 µM [activator, single point]

Q: For `COc1ccccc1Cc1c(-c2ccco2)nc2c3ccccc3ccn12`, which Potency is on record?
A: inconclusive: 7.08 µM [activator, partial curve, poor fit]

Q: With `O=C1/C(=C/c2cccc([N+](=O)[O-])c2)Oc2cc(O)ccc21` as the compound, how does the Potency read?
A: inconclusive: 2.51 µM [activator, partial curve, poor fit]

Q: With `Brc1ccc(-c2cn3ccccc3n2)cc1` as the compound, how does the Potency read?
A: inconclusive: 2.51 µM [activator, full curve]

Q: With `O=C(Nc1ccccc1N1CCOCC1)c1ccc([N+](=O)[O-])o1` as the compound, how does the Potency read?
A: inconclusive: 3.16 µM [activator, partial curve, poor fit]

Q: Which Potency does the source give for `O=C(Nc1cccnc1)C1(F)C(F)(F)C(F)(F)C(F)(F)C(F)(F)C1(F)F` here?
A: active: 10 µM

Q: Which Potency does the source give for `O=C(Nc1cccnc1)c1ccc([N+](=O)[O-])s1` here?
A: inconclusive: 2.82 µM [activator, partial curve, poor fit]

Q: For `Cc1nc2ccn(Cc3ccco3)c(=O)c2cc1C(=O)Nc1ccc(F)cc1`, which Potency is on record?
A: active: 12.6 µM

Q: For `O=C1C(C=Nc2ccccc2O)=C(O)c2ccccc21`, which Potency is on record?
A: inconclusive: 3.16 µM [activator, full curve, poor fit]

Q: With `C=C1C(=O)[C@]23C[C@H]1CC[C@H]2[C@]1(C)[C@@H](OC(C)=O)CC[C@@](C)(C(=O)O)[C@H]1C[C@@H]3O` as the compound, how does the Potency read?
A: inconclusive: 3.16 µM [activator, single point]

Q: With `CN1CCN(C(=S)NC(=O)c2ccccc2Br)CC1` as the compound, how does the Potency read?
A: inconclusive: 17.8 µM [activator, single point]

Q: For `Cc1cccc(N2CCN(C(=O)C3CCC(CNS(=O)(=O)c4cccs4)CC3)CC2)c1C` (stereo not given), which Potency is on record?
A: inactive

Q: For `Cc1nnsc1S(=O)c1ccc(Br)cc1` (stereo not given), which Potency is on record?
A: inconclusive: 17.8 µM [activator, partial curve, poor fit]

Q: For `COc1ccc2nc(N3CCN(C(=O)c4ccc([N+](=O)[O-])o4)CC3)sc2c1`, which Potency is on record?
A: inconclusive: 3.55 µM [activator, single point]

Q: For `COc1ccc(OCC(=O)N/N=C/c2cccc3cccnc23)cc1`, which Potency is on record?
A: inactive

Q: For `Cc1c(Cl)cccc1Nc1n[nH]c(=S)s1`, which Potency is on record?
A: inactive

Q: For `Cc1cccc(Nc2ccncc2S(N)(=O)=O)c1`, which Potency is on record?
A: inactive

Q: Which Potency does the source give for `Cc1ccc2ncccc2c1NC(=S)NC(=O)c1ccccc1` here?
A: inconclusive: 12.6 µM [activator, single point]

Q: With `O=C(Nc1c(C(=O)O)[nH]c2ccc(F)cc12)c1cccc(C(F)(F)F)c1` as the compound, how does the Potency read?
A: inconclusive: 22.4 µM [activator, single point]

Q: For `O=C(Nc1ccccc1O)c1ccc(Cl)cc1`, which Potency is on record?
A: active: 12.6 µM

Q: With `Cc1cccnc1NC(=S)NCc1ccco1` as the compound, how does the Potency read?
A: inconclusive: 12.6 µM [activator, single point]

Q: For `COc1ccc(NCc2nnc(SCC(=O)c3ccc(OC)cc3)n2C)cc1`, which Potency is on record?
A: inconclusive: 25.1 µM [activator, single point]

Q: With `Cc1ccc(C2=NCCn3c2c2ccc([N+](=O)[O-])cc2[n+]3[O-])cc1` as the compound, how does the Potency read?
A: inconclusive: 22.4 µM [activator, single point]

Q: With `Cn1c(-c2ccccc2)cc2c3no[n+]([O-])c3ccc21` as the compound, how does the Potency read?
A: inconclusive: 20 µM [activator, partial curve, poor fit]

Q: With `COC(=O)c1ccc(C2OCC(C)(C)CO2)cc1` as the compound, how does the Potency read?
A: inactive

Q: Which Potency does the source give for `O=C(NCc1ccccn1)Nc1ccccc1Cl` here?
A: inactive

Q: For `O=C1NC(=O)/C(=C/c2cc3c(cc2Br)OCO3)S1`, which Potency is on record?
A: inconclusive: 31.6 µM [activator, single point]

Q: Which Potency does the source give for `O=C(N/N=C(\Cc1ncc[nH]1)c1ccccc1)c1cccnc1` here?
A: inactive

Q: With `CC1CCCC(C)N1C(=O)COC(=O)/C=C/c1ccco1` (stereo not given) as the compound, how does the Potency read?
A: inconclusive: 35.5 µM [activator, single point]

Q: Which Potency does the source give for `Cc1ccc(S(=O)(=O)c2nc(S(C)(=O)=O)sc2N2CCC(O)CC2)cc1` here?
A: active: 8.91 µM

Q: With `Cc1cc(C(=O)COc2cc(F)ccc2[N+](=O)[O-])c(C)n1C1CC1` as the compound, how does the Potency read?
A: inconclusive: 5.62 µM [activator, full curve, poor fit]

Q: For `O=[N+]([O-])c1cccc(-c2ccc(C(=S)N3CCOCC3)o2)c1`, which Potency is on record?
A: inconclusive: 1 µM [activator, full curve, poor fit]

Q: For `CCc1cc2c(SCC(=O)c3cccs3)ncnc2s1`, which Potency is on record?
A: inconclusive: 11.2 µM [activator, partial curve]

Q: With `Cc1cc(C(=O)NCc2cccs2)cs1` as the compound, how does the Potency read?
A: inactive

Q: For `Cc1ccc(F)c(S(=O)(=O)NC(=O)C2(C)CCN2C(=O)CC2CCCCC2)c1` (stereo not given), which Potency is on record?
A: inactive

Q: For `Cc1ccc(N=Nc2ccc(N)cc2C)c(S(N)(=O)=O)c1`, which Potency is on record?
A: inactive

Q: For `Cc1cc2c(c(=O)n1CCc1ccccc1)C(c1ccco1)C(C#N)=C(N)O2` (stereo not given), which Potency is on record?
A: inconclusive: 35.5 µM [activator, single point]

Q: With `COc1ccc(CCNC(=O)c2sc3cc(C)ccc3c2Cl)cc1` as the compound, how does the Potency read?
A: inactive

Q: For `O=C(Nc1cc([N+](=O)[O-])ccc1O)c1cccc(NC(=O)c2ccco2)c1`, which Potency is on record?
A: inconclusive: 12.6 µM [activator, single point]

Q: With `Cn1nnnc1Sc1ncnc2scc(-c3ccc([N+](=O)[O-])cc3)c12` as the compound, how does the Potency read?
A: inconclusive: 2.82 µM [activator, partial curve, poor fit]
